Source: PubChem BioAssay AID686978 (National Center for Advancing Translational Sciences (NCATS), 2013)
The whole screen tested about 420,000 compounds, of which about 64,000 (15%) were called active. Inconclusive means that the source gave no clear call. Such entries were picked first, then a sample of the others. The call rests on the fitted dose curve; in most records, active means well fitted inhibition curve with a large enough effect; inconclusive means small, poorly fitted or top-dose-only effect; inactive means flat fitted curve, though single readings scatter. No potency is given beside an inconclusive call; the fits are too rough.

Test: qHTS for Inhibitors of human tyrosyl-DNA phosphodiesterase 1 (TDP1): qHTS in cells in absence of CPT; further: nearly all actives have a fitted effect of over 55% in size
Details: DT40 Tdp1-/- hTDP1 cells, no CPT, ATP luminescence, 48 h; series mostly up to 46.2 µM
How it was run: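 Growth kinetics read by CellTiter-Glo luminescence after ≥48 hr at 37 °C. Cells: DT40 Tdp1-/- stably carrying human TDP1, 400 per well, compound exposure in the absence of CPT (DMSO vehicle).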
Potency means the concentration at half of the fitted maximal effect; tags describe the fitted curve by direction and shape.

Compound	Potency
CCc1cc(C(=O)NCCN2Cc3ccccc3OC(c3ccsc3)C2)n(C)n1 (stereo not drawn)	active: 20.6 µM
Cc1cc(OC(=O)c2c(F)cc(F)cc2F)nc(C)n1	inactive
Cc1cccc(N(C(=O)CNC(=O)c2ccco2)C(C(=O)NCC2CCCO2)c2ccccc2)c1 (stereo not drawn)	inactive
OCCNCc1c(OCc2ccc(Cl)cc2)ccc2ccccc12	active: 23.1 µM
O=C(NNC(=S)NC(=O)c1ccccc1)c1ccc(O)cc1	active: 9.2 µM
CN(CC(=O)Nc1ccccc1Cl)C(=O)Cn1nnc(-c2ccc(F)cc2)n1	inconclusive [inhibitor, single point]
Cc1ccc(C(=O)Nc2ccc3c(c2)OCCO3)c(C)c1	inconclusive [inhibitor, single point]
Cc1onc(-c2ccccc2Cl)c1C(=O)O/N=C(\N)c1ccccc1	inconclusive [inhibitor, single point]
Cc1ccccc1CN1CCN(C(=O)c2cc(-c3ccncc3)nc3ccccc23)CC1	active: 11.6 µM
CN(Cc1cccc(F)c1)C(=O)c1ccc(NS(=O)(=O)c2ccc3[nH]c(=O)[nH]c3c2)cc1	inactive
CC(=O)c1cn(C2OC(CO)C3OC(C)(C)OC32)c(=O)n(C)c1=O (stereo not drawn)	inactive
Cc1cc(NC(=O)CSc2nccn2-c2ccc(Cl)cc2)no1	inconclusive [inhibitor, partial curve, poor fit]
Cc1cc(Nc2ccc(C)c(Cl)c2)n2nc(Cc3ccccc3)nc2n1	inconclusive [inhibitor, single point]
COc1ccc(NC(=O)CN(C)C(=O)c2cc(CN3C(=O)c4ccccc4C3=O)ccc2OC)cc1	inactive
O=c1[nH]c2ccccc2cc1CN(Cc1ccco1)S(=O)(=O)c1ccccc1	inconclusive [inhibitor, single point]
CC(OC(=O)C1CC(=O)N(Cc2ccco2)C1)C(=O)Nc1cccc(C#N)c1 (stereo not drawn)	inactive
Oc1ccc(/C=N/Nc2ccnc3cc(Cl)ccc23)cc1O	active: 13 µM
Oc1c(C=Nc2cccnc2)sc2ccccc12	inactive
O=C(NCc1nnc2c(C(F)(F)F)cc(Cl)cn12)c1ccco1	inactive
COC(=O)C[C@@H]1CC[C@@H](NC(C)=O)[C@@H](CO)O1	inactive
CCOc1ccc(/C=N/OCC(=O)NCc2ccc3c(c2)OCO3)cc1OC	inconclusive [inhibitor, single point]
COc1ccc(-c2cc(C(=O)N3CCCC(C(F)(F)F)C3)c3ccccc3n2)cc1OC (stereo not drawn)	active: 20.6 µM
CCN(c1ncnc2c1cnn2-c1ccc(C)cc1)C1CCCCC1	inactive
